Biological target: T1, BcATG4 (Botrytis cinerea, UniProt A6SDQ3)
T1 construct: gene atg4
Assay: in vitro cleavage of Citrine-BcATG8-ShR sensor, western blot
Details: RT, 10 min preincubation; weak effect

T1 sequence (A6SDQ3 whole entry): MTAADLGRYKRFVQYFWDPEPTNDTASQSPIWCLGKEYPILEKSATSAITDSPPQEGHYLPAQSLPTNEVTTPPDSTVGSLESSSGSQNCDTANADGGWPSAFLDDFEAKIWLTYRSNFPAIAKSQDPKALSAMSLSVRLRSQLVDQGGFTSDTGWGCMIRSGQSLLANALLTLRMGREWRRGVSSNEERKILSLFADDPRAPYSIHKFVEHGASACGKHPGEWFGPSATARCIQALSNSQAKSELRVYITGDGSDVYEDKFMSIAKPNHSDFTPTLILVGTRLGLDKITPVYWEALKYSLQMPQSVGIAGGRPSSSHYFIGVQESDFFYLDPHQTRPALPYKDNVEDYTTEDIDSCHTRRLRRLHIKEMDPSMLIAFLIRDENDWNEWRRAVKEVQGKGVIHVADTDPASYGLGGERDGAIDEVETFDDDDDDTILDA

SMILES | in vitro cleavage of Citrine-BcATG8-ShR sensor, western blot
O=C1c2ccccc2C(=O)N1c1ccccc1 [PID, 2-phenyl-1H-isoindole-1,3(2H)-dione] | PID and PIO analogs of EB have weak effects on the cleavage
O=C1C(c2ccccc2)=Nc2ccccc21 [PIO, 2-phenyl-3H-indol-3-one] | PID and PIO analogs of EB have weak effects on the cleavage

From paper PMC10904834 (Nature Communications, 2024)
